In PubChem BioAssay AID504832 (National Center for Advancing Translational Sciences (NCATS), 2011):
About 18,000 (5.8%) of roughly 310,000 compounds were called active. Inconclusive results, whose numbers are uncertain, are shown with a selection of clear calls. Calls follow the shape of the dose curve; as a rule, active = well fitted inhibition curve with a large enough effect; inconclusive = small, poorly fitted or top-dose-only effect, or another doubt; inactive = no such curve, though single readings can be large or run the other way. Potencies of inconclusive entries are left out as doubtful fits.

experiment: Primary qHTS for delayed death inhibitors of the malarial parasite plastid, 48 hour incubation; settings: P. falciparum luciferase growth in erythrocytes; series mostly up to 28.7 µM; activity change, negative = inhibition: at the top concentration
In short: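 Growth was read as firefly luciferase luminescence after a 48 h, 37 C, 5% CO2 exposure of compounds to reporter-bearing P. falciparum cultures (0.1% parasitemia, 2% hematocrit final) in Albumax-supplemented RPMI 1640.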
% is scaled to controls: 0 for no effect and ±100 for the full control effect; potency is read from the fitted curve at half-maximal effect; tags tell the direction and shape of the fitted curve.

SMILES	activity change, negative = inhibition	Potency
Cc1ccc(S(=O)(=O)NCCc2cc3ccc(C)cc3[nH]c2=O)cc1	inactive: 9.29%	
COc1cc(/C=N/NC(=O)COc2ccc(Cl)cc2)ccc1OS(=O)(=O)c1ccc(C)cc1		inconclusive [inhibitor, partial curve, poor fit]
O=C(COC(=O)c1cc(=O)[nH]c2ccccc12)NCc1ccc(Cl)cc1		inconclusive [inhibitor, single point]
Cc1cccc(-n2nnc(C(=O)NC3CCCc4ccccc43)c2N)c1 (stereo not given)		inconclusive [inhibitor, partial curve, poor fit]
Cc1cc(C)c(S(=O)(=O)Nc2cnc3ccccc3c2)c(C)c1	inactive: -0.791%	
CC(C)c1ccc(/C=N/NC(=O)CC(=O)NCc2ccccc2)cc1		inconclusive [inhibitor, full curve, poor fit]
O=C(O)C1CCN(S(=O)(=O)c2ccc(N3CCC(O)CC3)c([N+](=O)[O-])c2)CC1		inconclusive [inhibitor, single point]
CCC1=C2CC[C@H]3C(=O)N(c4ccccc4)C(=O)[C@H]3[C@H]2[C@@]2(C)C(=NCc3ccccc3)OC(=O)N2C1=O		inconclusive [inhibitor, single point]
COC(=O)c1ccc2c(c1)SC1=C(CCCC1=O)N2		inconclusive [inhibitor, partial curve]
O=C(C1CC1)N1N=C(C2CCCCC2)CC1(O)C(F)(F)F (stereo not given)	inactive: -14.4%	
Cc1ccc2[nH]c(=O)c(CN3CCCCC3)c(-c3ccccc3)c2c1		inconclusive [inhibitor, single point]
CCCCNC(=O)C(CC)(ONc1ccccc1C(F)(F)F)c1ccccc1 (stereo not given)		active: 13.1 µM
Cc1cccc(N2CN=C3SCC(=O)N3C2)c1	inactive: 95.5%	
CCC(=O)N/N=C/c1ccc(OS(=O)(=O)c2ccccc2)cc1		active: 10.4 µM
CN(CC(=O)Nc1cccc(F)c1)C(=O)CCSc1ccc(F)cc1		inconclusive [inhibitor, single point]
Cc1ccc(OCC(=O)NCc2ccco2)cc1C	inactive: 12.7%	
Cn1cccc1-c1cc(C(=O)N2CCc3c([nH]c4ccccc34)C2c2ccccn2)[nH]n1 (stereo not given)		inconclusive [inhibitor, single point]
O=C1CN(C(=O)COc2c(F)c(F)cc(F)c2F)c2ccccc2N1		inconclusive [inhibitor, partial curve, poor fit]
CCN(C(=O)CSc1nnc(Cc2cccc3ccccc23)n1N)C1CCS(=O)(=O)C1 (stereo not given)		inconclusive [inhibitor, single point]
CC(=O)Nc1ccc2c(c1)OCCOCCOc1cc(NC(C)=O)ccc1OCCO2		inconclusive [inhibitor, single point]
CC(CNC(=O)CN1C(=O)NC2(CCOc3ccccc32)C1=O)c1ccccc1 (stereo not given)		inconclusive [inhibitor, single point]
Cc1ccccc1Nc1cc(C)c2c(O)cccc2n1		inconclusive [inhibitor, full curve]
COc1ccccc1C(=O)NC(CCSC)C(=O)NCCCn1nc(C)cc1C (stereo not given)	inactive: -7.14%	
CCOC(=O)C1(CCCc2ccccc2)CCN(C(=O)c2ocnc2C)CC1		inconclusive [inhibitor, partial curve, poor fit]

SMILES	activity change, negative = inhibition	Potency
Cc1cc(NC(=O)Cn2cc([N+](=O)[O-])cn2)no1	inactive: 2.84% [at 5.75 µM]	
COc1cc(C(=O)OCC(=O)c2ccc(S(=O)(=O)N3CCCCC3)cc2)cc(OC)c1OC		inconclusive [inhibitor, partial curve, poor fit]
CC(C)=CCC/C(C)=C/C=N/NC(=O)c1ccccc1[N+](=O)[O-]		inconclusive [inhibitor, partial curve, poor fit]
Cc1cccc(CN2CCN(C(=O)CN(C)C(C)C(=O)Nc3ccc(C(N)=O)cc3)CC2)c1 (stereo not given)	inactive: -15.9%	
Cc1nn(Cc2ccccc2)c(=O)c2nn(-c3ccc(Cl)cc3)c(C)c12		inconclusive [inhibitor, single point]
NS(=O)(=O)c1ccc(N=Nc2c[nH]c(=O)c(O)c2)cc1		inconclusive [inhibitor, single point]
Cc1nnc(SCC(=O)c2c[nH]c3ccccc23)n1C1CC1		inconclusive [inhibitor, single point]
O=C(CCc1nnc2ccc(N3CCOCC3)nn12)Nc1ccc(F)cc1F	inactive: 10.7%	
CCCCN(Cc1ccccc1)c1ncnc2nc[nH]c12	inactive: 17.8%	
CC(C)(C)c1ccc(OC(=O)N2CCOCC2)cc1	inactive: 62.4%	
CCNC(=S)N/N=C(\C)c1ccc2ccccc2c1		inconclusive [inhibitor, partial curve, poor fit]
O=C(NCCC1CCCCN1S(=O)(=O)c1ccc(F)cc1)C(=O)NC1CCCC1 (stereo not given)		inconclusive [inhibitor, single point]
CCOC(=O)C1=C(CCc2ccccc2)NC(=O)NC1c1cccc([N+](=O)[O-])c1 (stereo not given)		inconclusive [inhibitor, single point]
CC1(OC(=O)CCc2ccccc2)C(=O)C=C2C=C(c3ccc(C#N)cc3)N(Cc3ccco3)C=C2C1=O (stereo not given)		inconclusive [inhibitor, single point]
CCCn1c2ccc(/C(C)=N\O)cc2c2cc(/C(C)=N/O)ccc21		inconclusive [inhibitor, partial curve, poor fit]
N/C(=N\S(=O)(=O)c1ccc(Cl)cc1)N1CCOCC1		inconclusive [inhibitor, full curve, poor fit]
CC1CCN(S(=O)(=O)c2ccc3c(c2)CC(C)N3C(=O)C2CCC2)CC1 (stereo not given)	inactive: -26.7%	
COc1ccc(C2=NN(C(=O)c3ccccc3)C(c3ccc(OC)c(OC)c3)C2)c(OC(C)=O)c1 (stereo not given)		active: 11.7 µM
COc1ccccc1C(=O)NCCC(=O)N1CCN(c2ccccc2Cl)CC1		active: 8.28 µM
CCN1C(=O)[C@H]2[C@@H](c3ccc(C)cc3)N3C(=O)N(c4ccc(OC)cc4)C(=O)[C@@]3(CC)[C@H]2C1=O	inactive: -9.74%	
Cn1c(=O)c2c(ncn2CC(=O)OCC(=O)Nc2cccc(Cl)c2)n(C)c1=O	inactive: 13.3%	
COc1ccc(NC(=O)O/N=C/c2c(C)nn(C(C)(C)C)c2C)cc1	inactive: 153%	
COC(=O)C1C(c2ccc(Br)cc2)Nc2nnc(C(F)(F)F)n2C1(C)O (stereo not given)		inconclusive [inhibitor, single point]
CN(C)c1nc(N(C)C)nc(N2CC(=O)N(c3ccccc3)C2=N)n1		active: 2.94 µM

SMILES	activity change, negative = inhibition	Potency
COc1ccc2cc3cc(C(=O)N4CC(C)CC(C)C4)oc3nc2c1 (stereo not given)		inconclusive [inhibitor, partial curve, poor fit]
O=C(CNS(=O)(=O)c1ccccc1)N/N=C/c1ccncc1		inconclusive [inhibitor, single point]
COc1ccccc1/C=C/C=N/N1CCN(Cc2ccc(Cl)cc2)CC1		inconclusive [inhibitor, single point]
C=CCn1c(O)c(N=NC(=O)CNC(=O)c2ccco2)c2ccccc21	inactive: 25.2%	
CC1CC(O)(CC(O)(c2ccccc2)c2ccccc2)C(C)CN1C (stereo not given)		inconclusive [inhibitor, partial curve]
CCC(C(=O)NC(C)(C)C)N(Cc1ccccc1Cl)C(=O)c1snc(C(N)=O)c1N (stereo not given)		inconclusive [inhibitor, single point]
COc1ccc(Cl)cc1NS(=O)(=O)c1cccc(C(=O)NCC(c2ccco2)N(C)C)c1 (stereo not given)	inactive: 53.8%	
O=C(c1ccccc1)c1ccc(O)cc1O	inactive: 29.4%	
Clc1ccc(Nc2ccc(-n3ccnc3)nn2)cc1Cl		active: 2.62 µM
CC(=O)Nc1ccc(C(=O)NNC(=O)c2cccs2)cc1	inactive: 33.2%	
Fc1ccc(CNc2ncccn2)cc1	inactive: 18.4%	
O=C(N/N=C/c1ccncc1)c1ccc2c(c1)OCO2	inactive: 109%	
COc1cc2c(cc1OC)CN(C(=O)c1cc(S(=O)(=O)N3CCCCC3)ccc1Cl)CC2		inconclusive [inhibitor, partial curve]
CN(C)[C@@H]1C(=O)C(C(N)=O)=C(O)[C@]2(O)C(=O)C3=C(O)c4c(O)ccc(Cl)c4[C@H](O)[C@H]3C[C@@H]12		active: 6.75 µM
CCCCn1c(N)c(N(CC(C)C)C(=O)CCNC(=O)c2ccccc2Cl)c(=O)[nH]c1=O		inconclusive [inhibitor, single point]
Cc1cc(C)nc(-n2ncc3c2CC(c2cccc(Cl)c2)CC3=O)n1 (stereo not given)		inconclusive [inhibitor, single point]
CC(C)[C@H]1CN(C)CCN1Cc1cn(C)nc1-c1cccc(Cl)c1	inactive: 0%	
Cc1ccc(NC(=S)N=Nc2c(O)n(C)c3ccc(S(=O)(=O)N4CCOCC4)cc23)cc1		active: 2.62 µM
CCOc1ccc(CNc2ccc3c(c2)ncn3C(C)(C)C)cc1		inconclusive [inhibitor, partial curve]
COc1cc2[nH]c(-c3cccc(F)c3)cc(=O)c2cc1OC		inconclusive [inhibitor, partial curve]
Cc1ccc(O)c(C(=O)CC(=O)c2ccc(C(C)(C)C)cc2)c1		inconclusive [inhibitor, full curve, poor fit]
COc1ccc(/C=N/NC(=O)c2ccc(COc3cccc4cccnc34)cc2)cc1O		inconclusive [inhibitor, single point]
